Measurements: PubChem BioAssay AID1631 (National Center for Advancing Translational Sciences (NCATS), 2009)
Among all 260,000 compounds or so, about 890 (0.34%) were called active. The inconclusive results got no clear call from the source; some entries with a clear call stand among them for comparison. The call rests on the fitted dose curve; in most records, active means well fitted activation curve with a large enough effect; inconclusive means small, poorly fitted or top-dose-only effect; inactive means no such curve, though single readings can be large or run the other way. Potencies of inconclusive entries are left out as doubtful fits.

Molecular target: Pyruvate kinase PKM (Homo sapiens) (UniProt P14618)
Assay: qHTS Assay for Activators of Human Muscle isoform 2 Pyruvate Kinase; further: nearly all actives have a fitted effect of over 55% in size
Conditions: purified PKM2, Kinase-Glo ATP luminescence; Potency: activation; activation: at 57.5 µM (top of the series), 0% is enzyme alone, no compound
Procedure, shortened: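 Purified hPK-M2 (>95%) run at intermediate activity with 0.1 mM ADP and 0.5 mM PEP in 50 mM imidazole pH 7.2, KCl, MgCl2; 1 h room temperature. ATP formed read by Kinase-Glo luminescence; normalized to uninhibited and no-enzyme controls.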
On the % scale 0 is the no-effect control and ±100 the full control effect; potency means the concentration at half of the fitted maximal effect; tags describe the fitted curve by direction and shape.

UniProt P14618, sequence (P14618 whole entry, looked up, canonical isoform): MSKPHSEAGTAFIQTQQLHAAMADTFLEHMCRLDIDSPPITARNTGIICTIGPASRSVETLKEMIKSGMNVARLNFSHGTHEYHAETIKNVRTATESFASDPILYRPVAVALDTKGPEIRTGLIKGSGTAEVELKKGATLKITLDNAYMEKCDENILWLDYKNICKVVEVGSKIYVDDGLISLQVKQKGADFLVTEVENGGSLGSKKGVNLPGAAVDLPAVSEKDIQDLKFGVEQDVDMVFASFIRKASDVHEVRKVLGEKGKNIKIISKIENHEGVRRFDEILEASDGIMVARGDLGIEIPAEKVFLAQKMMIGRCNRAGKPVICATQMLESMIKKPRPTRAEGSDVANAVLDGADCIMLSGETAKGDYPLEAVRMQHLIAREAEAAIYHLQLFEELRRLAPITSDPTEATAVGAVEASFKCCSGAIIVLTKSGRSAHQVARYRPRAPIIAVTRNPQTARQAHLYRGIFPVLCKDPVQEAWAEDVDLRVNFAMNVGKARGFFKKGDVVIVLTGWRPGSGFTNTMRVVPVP

Row | SMILES | Potency | activation
1 | CCCc1nc(N2CCN(C)CC2)c2sc(=S)n(-c3ccccc3)c2n1 | inconclusive [rising, single point] | –
2 | Cn1c(=O)c2c(nc(N3CCc4ccccc4C3)n2Cc2ccccc2F)n(C)c1=O | inconclusive [rising, single point] | –
3 | CCOC(=O)c1ccc(N2C(=O)CC(Sc3nnc(C)s3)C2=O)cc1 (centres undefined) | inconclusive [rising, partial curve] | –
4 | C=CCn1c(=O)c2c3c(sc2n2c(Nc4ccc(OC)cc4)nnc12)CCCC3 | inconclusive [rising, partial curve] | –
5 | Cc1cc(-c2nn(-c3ccccc3F)cc2CNCCc2cnc[nH]2)c(C)s1 | inconclusive [rising, single point] | –
6 | CN(C)c1ccc(/C=N/NC(=O)C(O)(c2ccccc2)c2ccccc2)o1 | – | inactive: 11.1%
7 | CCOC(=O)C1=C(C)N=c2s/c(=C/c3ccco3)c(=O)n2C1c1cccc(OC)c1 (centres undefined) | inconclusive [rising, full curve, poor fit] | –
8 | CC(C)N1CCN(Cc2ccncc2)CC1CCO (centres undefined) | inconclusive [rising, single point] | –
9 | CCN1CCCC1CNC(=O)c1cc2c(-c3ccc(Cl)cc3)nn(C)c2s1 (centres undefined) | – | inactive: -2.1%
10 | O=C(c1cc(-c2ccco2)on1)N1CCc2ccccc2C1 | inconclusive [rising, partial curve, poor fit] | –
11 | Cc1noc(C)c1S(=O)(=O)Nc1ccc(C(=O)N2CCN(c3ccc(F)cc3)CC2)cc1 | inconclusive [rising, partial curve] | –
12 | O=C(c1ccccc1F)N1CCC(O)(c2cccnc2)CC1 | inconclusive [rising, partial curve] | –
13 | Cc1ccc(CSc2nnc(SCC(=O)N/N=C/c3c[nH]c4ccccc34)s2)cc1 | active: 25.1 µM | –
14 | COc1ccc(N(C(=O)CSCC(=O)Nc2cc(C)on2)C(C(=O)NC2CCCCC2)c2ccc(O)c(O)c2)cc1 (centres undefined) | inconclusive [rising, partial curve] | –
15 | COc1cc(/C=C2/SC(=S)N(Cc3ccccc3)C2=O)ccc1O | – | inactive: 13.6% [at 11.5 µM, 0% is enzyme alone, no compound]
16 | Cc1ccc(S(=O)(=O)Nc2ccc(C(=O)N3CCCC3)cc2)cc1 | – | inactive: 4.6%
17 | COc1ccc(C(=O)OCC(=O)NCc2ccco2)cc1OC | inconclusive [rising, single point] | –
18 | Cc1ccc(NC(=O)Cn2sc3nc(C)cc(C)c3c2=O)c(Cl)c1 | active: 3.55 µM | –
19 | O=c1[nH]c(CN2CCCC2)nc2sc3c(c12)CCC3 | inconclusive [rising, single point] | –
20 | O=C(CSC1=NS(=O)(=O)c2ccccc21)Nc1ccccc1 | inconclusive [rising, single point] | –
21 | O=c1ccc2cc(S(=O)(=O)Nc3ccccc3F)ccc2o1 | inconclusive [rising, partial curve] | –
22 | CCOc1cc(NC(=O)c2cccs2)c(OCC)cc1NC(=O)CCC(=O)NCCN1CCOCC1 | inconclusive [rising, single point] | –

Row | SMILES | Potency | activation
23 | O=C(O)c1ncn(Cc2ccc(Br)cc2)c1C(=O)O | inconclusive [rising, single point] | –
24 | Nn1c(Cc2ccccc2F)nnc1SCC(=O)Nc1cccc(S(=O)(=O)NC2=NCCCCC2)c1 | inconclusive [rising, single point] | –
25 | CCc1nnc(NC(=O)CSc2nnc3ncccn23)s1 | inconclusive [rising, single point] | –
26 | CCc1nnc(NS(=O)(=O)c2ccc(NC(=O)CCC(=O)O)cc2)s1 | inconclusive [rising, single point] | –
27 | CC(C)Oc1ccc(C(=O)NC2CCCCC2)cc1 | – | inactive: -0.769%
28 | Cc1ccc(-c2nc3c(c(=O)[nH]c(=O)n3Cc3ccccc3)n2C)o1 | inconclusive [rising, partial curve] | –
29 | CCCCCC(=O)Nc1ccc(-c2csc(C)n2)cc1 | – | inactive: -18.7%
30 | COc1ccc(NC(=O)CCCCCN2C(=O)CCC2=O)cc1Cl | inconclusive [rising, partial curve] | –
31 | CCOc1cccc2cc(-c3csc(NC(=O)CCC(=O)NCCCN4CCC(C)CC4)n3)c(=O)oc12 | inconclusive [rising, single point] | –
32 | CC1CCN(C2CCN(S(=O)(=O)c3ccc(F)cc3)CC2)CC1 | – | inactive: -0.378%
33 | CC(C)NC(=O)CCCn1c(=S)[nH]c2cc3c(cc2c1=O)OCO3 | inconclusive [rising, partial curve] | –
34 | Cc1ccc(CNC(=O)CCC2CCCN(C(=O)c3ccc4c(c3)OCO4)C2)o1 (centres undefined) | inconclusive [rising, partial curve] | –
35 | CCc1ccc(/C=C2\Oc3cc(OS(C)(=O)=O)ccc3C2=O)cc1 | – | inactive: -0.0025%
36 | Cc1ccc(C(=O)OCn2ncc(Cl)c(Cl)c2=O)cc1 | inconclusive [rising, single point] | –
37 | O=S(=O)(c1ccc(F)cc1)N1CCn2c(nc3ccccc32)C1 | inconclusive [rising, partial curve] | –
38 | Cc1nnc(N2CCN(c3ccccc3)CC2)[nH]c1=O | inconclusive [rising, single point] | –
39 | COc1cc2cc(C)c(SCC(=O)N3CCN(C(=O)c4ccco4)CC3)nc2cc1OC | active: 17.8 µM | –
40 | CCCCn1c(CCC(=O)O)ccc1-c1cccs1 | inconclusive [rising, full curve, poor fit] | –
41 | NS(=O)(=O)c1ccc(NC(=S)NCc2cccc(Cl)c2)cc1 | – | inactive: -2.5%
42 | CC(=O)N(C1=C(N)C(=O)c2ccccc2C1=O)C(C)C | inconclusive [rising, single point] | –
43 | O=C(CN1CCN(Cc2ccc(Cl)cc2)CC1)N/N=C/c1cccc(F)c1 | inconclusive [rising, full curve, poor fit] | –
44 | O=P(O)(CCc1ccncc1)CN1CCCCC1 | inconclusive [rising, single point] | –
